In the antibiotic and cytotoxicity screens of Wong et al. (2023):
The list shows a part of the results.

Test system: S. aureus RN4220
Experiment: growth inhibition call (relative growth <= 0.2)
Details: 50 µM

Growth inhibition call, inactive:
C[C@H]1CN([C@@H](C)CO)C(=O)c2cccc(NS(=O)(=O)c3cccs3)c2O[C@@H]1CN(C)Cc1ccc(Oc2ccccc2)cc1
COc1ccc(S(=O)(=O)Nc2ccc3c(c2)C(=O)N([C@H](C)CO)C[C@@H](C)[C@@H](CN(C)C(=O)Nc2c(C)noc2C)OCCCC[C@@H](C)O3)cc1
C[C@H]1CN([C@@H](C)CO)C(=O)Cc2cc(NC(=O)Nc3cccc4ccccc34)ccc2O[C@@H]1CN(C)C(=O)Nc1ccc2c(c1)OCO2
Cc1ccc(S(=O)(=O)N(C)C[C@H]2OCCCC[C@H](C)Oc3ccc(NC(=O)Nc4cccc5ccccc45)cc3C(=O)N([C@H](C)CO)C[C@H]2C)cc1
C[C@@H]1CN([C@H](C)CO)C(=O)c2cccc(NC(=O)CCCCCC(=O)Nc3ccccc3N)c2O[C@@H]1CN(C)C(=O)Nc1ccc(C(F)(F)F)cc1
C[C@H](CO)N1C[C@H](C)[C@@H](CN(C)C(=O)Nc2cccc3ccccc23)Oc2c(NC(=O)Nc3ccc(F)cc3)cccc2C1=O
O=C(C[C@H]1C=C[C@H](NC(=O)CN2CCOCC2)[C@H](CO)O1)NC1CCCCC1
C[C@H](CO)N1C[C@H](C)[C@H](CN(C)Cc2ccncc2)Oc2c(NS(=O)(=O)c3cn(C)cn3)cccc2C1=O
CCOCC(O)COc1ccc(NC(=O)CC[S+](C)C)cc1.Cc1ccc(S(=O)(=O)[O-])cc1 (stereo not given)
CC(C)N(CCCNC(=O)Nc1ccc(C(C)(C)C)cc1)C[C@H]1O[C@@H](n2ccc3c(N)ncnc32)[C@H](O)[C@@H]1O
CC(C)CC#Cc1cnc2c(c1)C(=O)N([C@H](C)CO)C[C@@H](C)[C@H](CN(C)C(=O)c1ccc3c(c1)OCO3)O2
C[C@H](CO)N1C[C@H](C)[C@@H](CN(C)S(=O)(=O)c2cccs2)Oc2c(NC(=O)CCCN(C)C)cccc2C1=O
Cc1ccc(C(=O)N2CCC(n3cc(C(C)(C)N)nn3)CC2)c(C)c1
COc1ccc(S(=O)(=O)Nc2ccc3c(c2)C(=O)N([C@H](C)CO)C[C@H](C)[C@H](CN(C)CC2CC2)O3)cc1
CCN1CCCC1=O
O=C(N[C@@H](c1ccccc1)c1ccc2ccccc2n1)C1CCN(Cc2ccc(Cl)c(Cl)c2)CC1
C[C@@H]1CN([C@H](C)CO)S(=O)(=O)c2ccc(C#CC(C)(C)O)cc2O[C@H]1CN(C)Cc1ccccc1
C[C@@H]1CCCCO[C@@H](CN(C)C(=O)Nc2ccc3c(c2)OCO3)[C@H](C)CN([C@H](C)CO)C(=O)c2cc(NC(=O)Nc3ccc4c(c3)OCO4)ccc2O1
Cc1noc(C)c1S(=O)(=O)Nc1ccc2c(c1)CC(=O)N([C@@H](C)CO)C[C@H](C)[C@@H](CN(C)S(=O)(=O)c1cn(C)cn1)O2
Cc1noc(C)c1S(=O)(=O)Nc1cccc2c1O[C@@H](CN(C)C(=O)NC(C)C)[C@@H](C)CN([C@@H](C)CO)C2=O
O=C(O)[C@H](O)[C@@H](O)[C@H](O[C@@H]1O[C@H](CO)[C@H](O)[C@H](O)[C@H]1O)[C@H](O)CO
c1ccc([C@@H]2Oc3ccccc3[C@@H]3Oc4ccccc4C[C@@H]23)cc1
C[C@@H]1CN([C@@H](C)CO)C(=O)c2cc(NC(=O)Nc3ccccc3)ccc2O[C@@H](C)C/C=C\CO[C@H]1CN(C)S(=O)(=O)c1ccc(F)cc1
C[C@@H]1CN([C@@H](C)CO)C(=O)c2cccc(NS(=O)(=O)c3ccc(Cl)cc3)c2O[C@@H]1CN(C)Cc1ccc(C(=O)Nc2ccccc2N)cc1
O=C(C[C@@H]1CC[C@@H]2[C@H](COC[C@@H](O)CN2S(=O)(=O)c2ccccc2)O1)NCc1ccncn1
C[C@@H]1CCCCO[C@H](CN(C)C(=O)Nc2cccc3ccccc23)[C@H](C)CN([C@H](C)CO)C(=O)c2cc(NS(=O)(=O)c3ccccc3)ccc2O1
O=C(O)[C@H](O)c1ccccc1
Cc1noc(C)c1S(=O)(=O)Nc1ccc2c(c1)C(=O)N([C@H](C)CO)C[C@H](C)[C@@H](CN(C)S(=O)(=O)c1cn(C)cn1)OCCCC[C@@H](C)O2
Cc1noc(C)c1NC(=O)N(C)C[C@@H]1Oc2c(NS(=O)(=O)c3ccccc3)cccc2C(=O)N([C@H](C)CO)C[C@@H]1C
C[C@H]1CN([C@@H](C)CO)C(=O)c2cc(C#CC3(O)CCCC3)cnc2O[C@@H]1CN(C)C(=O)C1CCCCC1
C[C@@H]1CN([C@@H](C)CO)S(=O)(=O)c2ccc(C#CC(C)(C)O)cc2O[C@H]1CN(C)C(=O)CN(C)C
C[C@@H]1CN([C@H](C)CO)C(=O)CCCn2cc(nn2)CO[C@H]1CN(C)C(=O)Nc1ccc2c(c1)OCO2
COc1cccc(S(=O)(=O)N(C)C[C@H]2Oc3cc(C#CCC(C)C)ccc3S(=O)(=O)N([C@H](C)CO)C[C@H]2C)c1
Cc1ccc(S(=O)(=O)Nc2ccc3c(c2)C(=O)N([C@H](C)CO)C[C@@H](C)[C@H](CN(C)C(=O)Nc2ccc(F)cc2)OCCCC[C@@H](C)O3)cc1
C[C@@H]1CN([C@H](C)CO)S(=O)(=O)c2ccc(C#C[C@@H](C)O)cc2O[C@H]1CN(C)C(=O)Cc1ccccn1
CCN1C[C@]23CN(Cc4cnn(C)c4)C[C@@H](C[C@H]2S1(=O)=O)O3
C[C@@H]1CN([C@H](C)CO)C(=O)Cc2cc(N(C)C)ccc2O[C@H]1CN(C)S(=O)(=O)c1ccc(Cl)cc1
C[C@H](CO)N1C[C@H](C)[C@H](CN(C)S(=O)(=O)c2ccc(F)cc2)Oc2ccc(NC(=O)CCCN(C)C)cc2C1=O
COc1ccc(S(=O)(=O)N(C)C[C@@H]2OCc3cn(nn3)CCCC(=O)N([C@@H](C)CO)C[C@H]2C)cc1
C[C@@H]1CN([C@H](C)CO)C(=O)c2cc(NC(=O)Cn3cnnn3)ccc2O[C@H]1CN(C)Cc1ccc(C(F)(F)F)cc1
